Data on 51 compounds can be found in PubChem BioAssay AID2326 (National Center for Advancing Translational Sciences (NCATS), 2010).

About 1,100 (0.41%) of roughly 270,000 compounds were called active. Roughly 3% stayed inconclusive and do not appear here. Calls follow the shape of the full dose curve. Only a part is listed here, and it is no random draw. Entries without a call were filed so in the source.
Potency is read from the fitted curve at half-maximal effect.

This experiment can be described thus: qHTS Assay for Inhibitors of Influenza NS1 Protein Function. Also: actives are rising curves; nearly all actives have a fitted effect of over 50% in size. The conditions noted are these: activity, positive = more growth: at 46.1 µM (top of the series). The source says: NIH Chemical Genomics Center [NCGC]
NIH Molecular Libraries Probe Centers Network [MLPCN]
Assay Submitter (PI): Daniel Engel
Influenza is a world-wide public health problem and emerging forms of the virus have the potential to cause a pandemic of equal or greater magnitude to the outbreaks recorded in 1918, 1957 or 1968. Vaccine development is proceeding and there also exist two classes of anti-influenza compounds. However these therapeutic modalities are neither fully effective nor widely enough available to fulfill global needs. In addition their potential usefulness against newly emergent strains is not known. Efforts are needed to develop novel agents against influenza virus, including broad-spectrum agents. Identification of small molecules that inhibit NS1 function either directly or by interfering with specific cellular pathways may be a key to increasing our defense against the virus.
We have miniaturized and optimized a cell based assay in which NS1 from influenza A is expressed in the budding yeast S. cerevisiae. NS1 is a multi-functional protein that counters the host innate immune response and facilitates viral versus cellular gene expression. Expression of NS1 causes a pronounced slow growth phenotype in yeast due to its intrinsic molecular activities. Small molecules that suppress the slow growth phenotype can be identified by a straightforward growth recovery assay using optical density (OD) as the measurement. The same yeast strain not expressing NS1 was used as positive control in the yeast growth recovery assay.
The yeast S. cerevisiae control and NS1 expressing cells were kindly supplied by laboratory of Dr. Daniel Engel, University of Virginia. Yeast starter cultures were stored in single use aliquots at -80C.
1. Yeast culture medium per liter: 1.2 g Yeast Nitrogen Base (w/out amino acids and Ammonium Sulphate), 5.0g Ammonium Sulphate, 0.77g -URA DO (drop-out) Supplement, adjust pH to 6.0. Adjust to 2% glucose prior to inoculating with yeast.
2. Yeast assay medium: 1.2 g Yeast Nitrogen Base (w/out amino acids and Ammonium Sulphate), 5.0g Ammonium Sulphate, 0.77g -URA DO (drop-out) Supplement, adjust pH to 6.0. Adjust to 2% D-galactose prior to inoculating with yeast.
1. Inoculate 100 mls of yeast culture medium with 1 ml of frozen yeast aliquote. Incubate overnight at 30C, 250RPM.
2. Harvest overnight culture at 4000 RPM and wash pellet with 15 mls H2O 3x.
3. Re-suspend washed pellet in 10 mls of yeast assay medium.
4. Prepare a 1:100 dilution of re-suspended culture in yeast assay medium.
5. Dispense 3.5 ul per well of reagents in step 4 in columns 2-48 in a black clear bottom 1536 well plate.
6. Dispense 3.5 ul per well of yeast assay medium in column 1 only.
7. Transfer 23 nl of compound per well.
8. Dispense 3.5 ul per well of yeast assay medium in columns 1-48.
9. Read plate using Viewlux protocol for optical density 600 (OD600) using excitation filter 600nm.
On the technique in general: In qHTS, concentration-response curves come from the screen itself.
Consider `CC1CC(C)CN(c2ccc(C(=O)NCc3ccc4c(c3)OCO4)cc2[N+](=O)[O-])C1` (stereo unspecified), for which the Potency was active: 10 µM.

In the case of `Cc1ccc(S(=O)(=O)N2CCOC23CCN(C(=O)c2cc(Cl)ccc2Cl)CC3)cc1`, the “activity, positive = more growth” value is inactive: -59.9%.

`CCOC(=O)N1CCN(C(=O)CCC(=O)N2CCOc3ccc(C)cc32)CC1`: the Potency is active: 5.62 µM.

In the case of `O=C1C(=O)c2cccc3cccc1c23`, the activity, positive = more growth was -53.7%.

Consider `Cc1cccc2nc(-c3ccccc3)nc(N[C@@H](CO)c3ccccc3)c12`, for which the activity, positive = more growth is -66.4%.

For `C/C(=N\NC(N)=O)c1cccc(Cl)c1`, the activity, positive = more growth came to 40.2%.

For `O=C(NCc1ccccc1F)c1ccc(S(=O)(=O)Nc2cccc(C(F)(F)F)c2)cc1`, the activity, positive = more growth was -57.5%.

Turning to `COc1ccccc1-c1nc(C#N)c(N2CCN(c3ccccc3)CC2)o1`, the activity, positive = more growth was -48.4%.

Take `CCOc1ccc(N=C2NC(=O)S/C2=C\c2ccc(N(C)C)cc2)cc1`: the “activity, positive = more growth” value was inactive: -29.8%.

As for `COC(=O)c1[nH]c2cccc(C)c2c1NC(=O)CN1CCN(c2ccccc2OC)CC1`, the “activity, positive = more growth” value was inactive: -53.8%.

`COc1ccc(C=C(c2nc3ccccc3s2)c2nc3ccccc3s2)cc1O`: the Potency was active: 15.8 µM.

For `CCOC(=O)c1ccc(NS(=O)(=O)c2ccc(SC)cc2)cc1`, the activity, positive = more growth is -36.3%.

Take `S=C(NCc1ccccn1)Nc1cccc(Cl)c1`: the activity, positive = more growth is -31.9%.

For the compound `Cc1ccc(NC(=O)c2ccc(CSc3nnc(-c4ccncc4)n3C)cc2)c(C)c1`, the activity, positive = more growth came out at 34%.

As for `O=C(OCC#CCSc1nc2ccccc2o1)c1ccco1`, the activity, positive = more growth is -53.4%.

Turning to `COC(=O)c1noc(-c2ccc(OC)cc2)n1`, the activity, positive = more growth is -32.6%.

In the case of `Cc1ccc(C(=O)NC(=S)NNS(=O)(=O)c2ccc(C)cc2)cc1`, the “activity, positive = more growth” value is inactive: -66.6%.

As for `O=C(C1CCCCN1S(=O)(=O)c1ccc(F)cc1)N1CCN(c2ccccc2F)CC1` (stereo unspecified), the “activity, positive = more growth” value was inactive: -46.9%.

On to `CC1(C)Cc2c(sc3c2c(=N)n(Cc2ccco2)c(=O)n3CC(=O)Nc2ccccc2)CO1`, for which the activity, positive = more growth was -62%.

`c1ccc(Cc2nnc3sc(-c4cccs4)nn23)cc1`: the “activity, positive = more growth” value was inactive: -69.9%.

Take `CCOC(=O)c1c(/N=C/c2cc([N+](=O)[O-])ccc2O)sc(C)c1C`: the activity, positive = more growth was -30.7%.

On to `COC(=O)CC(=O)CSc1nc2c(cc1C#N)CCC2`, for which the activity, positive = more growth came out at 116%.

Consider `CCOC(=O)Cn1c(CN(Cc2ccccc2)Cc2ccccc2)nc2c1c(=O)n(C)c(=O)n2C`, for which the activity, positive = more growth was -83.7%.

Turning to `CC1CC(C)CN(c2nc3c(c(=O)[nH]c(=O)n3C)n2CCCSc2nc3ccccc3s2)C1` (stereo unspecified), the activity, positive = more growth was -58.7%.

For `COc1c(O)cc2c(c1O)C(=O)CC(c1ccccc1)O2` (stereo unspecified), the “activity, positive = more growth” value is inactive: -47.5%.

Turning to `COc1ccc(N(CC(=O)Nc2ccc3c(c2)OCCO3)S(=O)(=O)c2cccnc2)cc1`, the “activity, positive = more growth” value is inactive: -61%.

As to `Cc1cc(C)n2nc(SCC(=O)Nc3c(C)n(C)n(-c4ccccc4)c3=O)nc2n1`, the Potency is active: 5.01 µM.

As to `COc1cccc(NC(=O)Cc2ccc3ccccc3c2)c1`, the “activity, positive = more growth” value was inactive: -32.1%.

Take `CN(C1CCCC1)C1CCN(C(=O)CNC(=O)/C=C/c2ccc(F)cc2)CC1`: the activity, positive = more growth came out at 36.1%.

In the case of `COc1ccccc1N1CCN(/N=C/c2cccc(O)c2)CC1`, the “activity, positive = more growth” value was inactive: -33.9%.

With `C/C(=N\NC(=O)c1ccc(CN2CCOCC2)cc1)c1ccc([N+](=O)[O-])cc1`, the activity, positive = more growth was determined as 36.1%.

As for `Cc1oc(-c2ccc(Cl)cc2)cc1-c1nn2c(-c3ccoc3C)nnc2s1`, the Potency was active: 10 µM.

In the case of `COC(=O)c1sc(NC(=O)C(C)C)c(C(=O)OC)c1C`, the “activity, positive = more growth” value is inactive: -10.3%.

With `COCCCN1C(=O)c2[nH]nc(-c3ccccc3O)c2C1c1ccc(Cl)cc1` (stereo unspecified), the activity, positive = more growth is -102%.

Turning to `CC(=O)OCC1O[C@@H](O[C@@H]2C[C@H]3C(C)(C)[C@H](OC(C)=O)CC[C@]3(C)[C@H]3CC[C@]45C[C@]4(CC[C@H]5[C@@H](C)C[C@@H](O)[C@H](O)C(C)(C)O)[C@@]32C)[C@H](O)[C@@H](O)[C@@H]1O` (stereo partly specified), the activity, positive = more growth was -43.1%.

On to `O=C1c2[nH]nc(-c3ccccc3O)c2C(c2cccc(Cl)c2)N1CC1CCCO1` (stereo unspecified), for which the activity, positive = more growth is -35.5%.

In the case of `CCOc1ccccc1NC(=O)COC(=O)CN(C)S(=O)(=O)c1ccc(C)cc1`, the activity, positive = more growth is -98.2%.

As for `Cc1noc(NS(=O)(=O)c2ccc(NC(=O)COc3ccccc3)cc2)c1C`, the activity, positive = more growth was -39%.

In the case of `O=C1N=C(N2CCCC2)S/C1=C\c1cccc(Br)c1`, the activity, positive = more growth is -34.3%.

As for `COc1ccc(-c2nc(Cn3c(SCc4cccc(F)c4)nc4ccncc43)c(C)o2)cc1OC`, the “activity, positive = more growth” value was inactive: -80.2%.

As to `COc1cc(S(=O)(=O)Nc2cccnc2)ccc1Cl`, the activity, positive = more growth is 37.2%.

Consider `CCC(C(=O)NC1CCCC1)N(C(=O)Cn1nnc(-c2ccc(OC)c(OC)c2)n1)C1CCCCC1` (stereo unspecified), for which the “activity, positive = more growth” value is inactive: -45.5%.

Consider `COc1ccccc1OCc1cc(C(=O)N2CCN(C)C(c3ccccc3)C2)no1` (stereo unspecified), for which the activity, positive = more growth was -67%.

As to `c1ccc(-c2nc(N3CCCCCC3)nc(-n3ccnc3)n2)cc1`, the “activity, positive = more growth” value is inactive: -88.4%.

Regarding `Cc1ccc(-c2cc(C(=O)N3CCCCC3)c3ccccc3n2)cc1C`, the activity, positive = more growth is -134%.

In the case of `CCNC(=O)n1nccc1C(C)Oc1ccccc1` (stereo unspecified), the activity, positive = more growth is -46.8%.

Consider `COC(=O)c1c(NC(=O)CCc2ccc(C)o2)sc(C)c1C`, for which the activity, positive = more growth is -42.4%.

In the case of `COc1ccc(N(CC(O)Cn2c(C)nc3ccccc32)S(=O)(=O)c2ccccc2)cc1` (stereo unspecified), the activity, positive = more growth worked out at 28.2%.

For `COC(=O)c1sccc1NC(=O)Cc1ccc(Br)cc1`, the activity, positive = more growth is -74.4%.

Regarding `Cc1csc(NC(=O)CSc2nnc(Cc3cccn3C)n2CCc2ccccc2)n1`, the activity, positive = more growth is -37.3%.

Regarding `O=C(Oc1cccc(N2C(=O)CCC2=O)c1)c1ccccc1`, the activity, positive = more growth came out at 37.9%.
